Results as given in the supplement of paper PMC11417369.
Some of the results follow.

Tested on: PF3D7_0420300 AP2 domain 1 (GST-tagged)
Assay: gcPBM binding intensity (ln(normalized median fluorescence intensity)); higher = stronger DNA binding
Method in brief: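 In this array assay, P. falciparum DNA-binding domains with a GST tag, expressed in E. coli, were applied for 1 h to primer-extended double-stranded 36-bp intergenic genomic probes and negative controls on an Agilent 4 × 180k array. Bound protein was visualised with Alexa488 anti-GST antibody at 488 nm. Binding intensity is the highest Masliner-normalised natural-log median intensity across replicate spots of either probe orientation.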

| Sequence | gcPBM binding intensity (ln) |
| --- | --- |
| AATGTCATCATATTCATATATATTTATTTCTTTTTG [GTGCAC_negctrl_site500] | 9.42 |
| ATATAATCCTTTCAAACACACAAAATATAATTAATA [CACACA_site1829] | 9.4 |
| ATGATGGAATATTCTACACACAATTAATAAACAAAC [CACACA_site1045] | 9.87 |
| AAAAAAAAAAGACACACACACAATAGTATATAAATC [CACACA_site6579] | 10.2 |
| TTTTTATTTTTTCAAGTGCATATTTTTGGCTTCTTA | 9.08 |
| TATATATATATATTACGTTTTAAATATACTAATCTT [CACACA_negctrl_site32] | 9.18 |
| AAAAAAAAAAAAAATACACACATATATATATATATA [CACACA_site85] | 9.45 |
| CTTTTTCCTTTATATTGTACATAATTAAAGATAATA [XGTACX_site7014] | 9.05 |
| TAAATTTATATATAGGTGCGCAATTTGATAATAGTT [GTGCAC_site9783] | 9.37 |
| TATAAATAGATATATACACACATTTTTAATGATAAA [CACACA_site7299] | 9.47 |
| AATAAAAATATAGGCACACATATTAAAATGAACTTA [CACACA_site830] | 9.53 |
| TAAAGATGTATTTATTCACACATCTCATATAATGAA [CACACA_site5229] | 8.94 |
| TTATGTATCCTTATAAGAAAAAAAAAAAAATTCTCT [CACACA_negctrl_site1183] | 8.88 |
| TGAATTTAGATATATACACACAAAAGTAAATACAAT [CACACA_site5548] | 9.77 |
| GAATATTAAACAAACACACACACATATATATATATA [CACACA_site3382] | 9.78 |
| AGTAGTCTGGAGAAAAGTACACAGTATCTGGTAACC [XGTACX_site2035] | 9.28 |
| AATATATACATACATACATGCATACATATATATAAC [TGCATGCA_site371] | 9.37 |
| TTTAAATATATTCAATCACACACATTCGTTTTTTTT [CACACA_site7962] | 9.61 |
| GTATAAAAATTATATACACACAACAGAATTACATAT [CACACA_site133] | 9.8 |
| GTTTATTGATTTATTTGTACTTATATATATATTTCA [XGTACX_site5098] | 9.77 |
| TAAATACAGACATATACACACATATATATATATATA [CACACA_site4382] | 9.28 |
| ATGTATATGTTTTGTTGTACAAGTATTTTATATCTT [XGTACX_site3588] | 9.54 |
| TTTCAATTTATCAGTGTGCACAAAAATAAAATAAAA | 9.25 |

| Sequence | gcPBM binding intensity (ln) |
| --- | --- |
| ATTTCAAATTAATTTACACACTTCATACTAAAAGAC [CACACA_site3176] | 9.45 |
| TTGATATATAATAATACACACTTACATAATTAATTA [CACACA_site4320] | 9.35 |
| AAGGATATGAAAAGTAGTACAAAATTTAGAACACCC [XGTACX_site4758] | 9.63 |
| ATTATATTCTCCTTCACACACAAAAATATTTCATCA [CACACA_site5326] | 9.74 |
| TTACGATTAAATATAACACACAACATATTTTTAATA [CACACA_site2967] | 9.48 |
| CACAAAAATTTATACACACACATATATAATATATAT [CACACA_site152] | 9.88 |
| AAGTATTACAACCACACACACACCTATATATCATAG [CACACA_site7878] | 9.98 |
| ATCTTTTACGAATACACACACATAAAGAAAAAAAAA [CACACA_site1331] | 9.85 |
| ATACATATAAAAAAGTGTACATATTAAAATAAGTAT [XGTACX_site1310] | 9.5 |
| TTTTTTATAAATCAAATGAAAAATAAACTATTCAGA [CACACA_negctrl_site1568] | 8.75 |
| ATATCCGTTCAAAGATGTACATATATATTCTATAGA [XGTACX_site5354] | 9.17 |
| AATGCAAATAATAAAACACACAAAAAAAAGAAAAAA [CACACA_site1184] | 9.76 |
| TCATACAAACCTATTTGTACATAAGTATAATATATA [XGTACX_site4284] | 9.08 |
| TATTGCCCTGGACACACACACATATATATATATATA [CACACA_site5389] | 9.88 |
| ATAATATAAACATACACACACACATCTATATTTATA [CACACA_site7381] | 10.1 |
| ATTATTATTATATATGCATGTAAAATATTAAAGTAC [TGCATGCA_site914] | 9.31 |
| TTATGTTATATAAAAAGTACAAATTTTTTTTAATTA [XGTACX_site3435] | 8.76 |
| TCCTACATATAAAAATGTACCCATTGTTTTTTTTTT [XGTACX_site7205] | 9.11 |
| TATATATATATATATACACACATATACATATTGTTT [CACACA_site3499] | 9.3 |
| AATGTATATAGAAACATGCACACGTGGTTGTATATA [CACACA_site3278] | 9.6 |
| TTGTGTTAACTACCATGTACTTATACATCATAGGAA [XGTACX_site6627] | 8.97 |
| TTTTTGTATGCTTCCCGATTACATTATGTTGTAAAT [CACACA_negctrl_site227] | 9.53 |
